1 molecule from PMC4924737 can be followed below.

By UniProt entry, the sequences of proteins in these tests, tags left out. Where a name states a change or a piece, a line headed by the entry shows the natural chain unless it says otherwise. Chains listed by the source or under a name are the forms on record and can include a tag or linker.
mutant Pro-MST3-HA (MST3 with mutations of the two prolines of the proline-rich domain) (Q9Y6E0, form named): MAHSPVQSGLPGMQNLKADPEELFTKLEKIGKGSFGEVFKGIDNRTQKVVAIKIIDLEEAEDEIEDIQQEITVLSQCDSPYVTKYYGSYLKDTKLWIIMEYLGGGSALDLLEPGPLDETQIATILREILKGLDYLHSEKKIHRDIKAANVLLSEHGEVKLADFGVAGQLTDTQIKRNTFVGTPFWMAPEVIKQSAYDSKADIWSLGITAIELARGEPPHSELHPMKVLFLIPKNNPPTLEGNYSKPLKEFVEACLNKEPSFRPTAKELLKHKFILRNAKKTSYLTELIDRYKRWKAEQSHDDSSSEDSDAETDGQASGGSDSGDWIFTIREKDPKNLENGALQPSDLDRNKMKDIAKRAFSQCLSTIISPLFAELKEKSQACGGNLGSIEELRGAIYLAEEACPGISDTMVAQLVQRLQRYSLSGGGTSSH
Wild-type MST3-HA (Q9Y6E0, form named): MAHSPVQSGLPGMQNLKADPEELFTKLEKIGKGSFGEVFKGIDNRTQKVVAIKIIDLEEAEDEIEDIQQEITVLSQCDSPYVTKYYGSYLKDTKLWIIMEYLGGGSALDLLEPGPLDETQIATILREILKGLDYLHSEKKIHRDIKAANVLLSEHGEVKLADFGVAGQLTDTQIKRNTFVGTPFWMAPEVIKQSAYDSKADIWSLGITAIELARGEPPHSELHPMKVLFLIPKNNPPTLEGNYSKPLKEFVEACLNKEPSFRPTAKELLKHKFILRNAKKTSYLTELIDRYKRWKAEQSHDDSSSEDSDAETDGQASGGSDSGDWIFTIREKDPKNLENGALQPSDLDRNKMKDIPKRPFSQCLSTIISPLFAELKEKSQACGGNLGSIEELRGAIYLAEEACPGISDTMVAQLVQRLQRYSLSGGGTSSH

Results are given in words; binding and its absence hold for the method and conditions named. Binding seen in cells or lysates may run through a third protein. Some binding calls cover weakened binding; strength is not graded here. Sequences can lack the tags named with a protein.

The target in assay [1] is mutant Pro-MST3-HA (MST3 with mutations of the two prolines of the proline-rich domain) (UniProt Q9Y6E0). Nature of the assay: co-IP; HEK293 cells co-transfected with the two tagged proteins; Triton X-100 lysis buffer (50 mM Tris-HCl pH 7.8, 150 mM NaCl, 1% Triton X-100); 0.5 mg total protein, 1 ug anti-myc or anti-HA antibody overnight at 4°C, protein G-Sepharose; immunoblot with anti-myc and anti-HA. Background: A western blot detects proteins with antibodies after separation by electrophoresis.

Another assay concerns the target Wild-type MST3-HA (UniProt Q9Y6E0). Described as above.

B1: Wild-type VAV2-myc (protein, UniProt P52735 1-878)
chain: MEQWRQCGRWLIDCKVLPPNHRVVWPSAVVFDLAQALRDGVLLCQLLHNLSPGSIDLKDINFRPQMSQFLCLKNIRTFLKVCHDKFGLRNSELFDPFDLFDVRDFGKVISAVSRLSLHSIAQNKGIRPFPSEETTENDDDVYRSLEELADEHDLGEDIYDCVPCEDGGDDIYEDIIKVEVQQPMIRYMQKMGMTEDDKRNCCLLEIQETEAKYYRTLEDIEKNYMSPLRLVLSPADMAAVFINLEDLIKVHHSFLRAIDVSVMVGGSTLAKVFLDFKERLLIYGEYCSHMEHAQNTLNQLLASREDFRQKVEECTLKVQDGKFKLQDLLVVPMQRVLKYHLLLKELLSHSAERPERQQLKEALEAMQDLAMYINEVKRDKETLRKISEFQSSIENLQVKLEEFGRPKIDGELKVRSIVNHTKQDRYLFLFDKVVIVCKRKGYSYELKEIIELLFHKMTDDPMNNKDVKKSHGKMWSYGFYLIHLQGKQGFQFFCKTEDMKRKWMEQFEMAMSNIKPDKANANHHSFQMYTFDKTTNCKACKMFLRGTFYQGYMCTKCGVGAHKECLEVIPPCKFTSPADLDASGAGPGPKMVAMQNYHGNPAPPGKPVLTFQTGDVLELLRGDPESPWWEGRLVQTRKSGYFPSSSVKPCPVDGRPPISRPPSREIDYTAYPWFAGNMERQQTDNLLKSHASGTYLIRERPAEAERFAISIKFNDEVKHIKVVEKDNWIHITEAKKFDSLLELVEYYQCHSLKESFKQLDTTLKYPYKSRERSASRASSRSPASCASYNFSFLSPQGLSFASQGPSAPFWSVFTPRVIGTAVARYNFAARDMRELSLREGDVVRIYSRIGGDQGWWKGETNGRIGWFPSTYVEEEGIQ
Regarding B1, the results for the binding entry (in assay [1]; with Wild-type MST3-HA) were “binds weakly” and “binds”, respectively.
